SMILES strings stand for the structures. Screen size: about 310,000 compounds; about 14,000 (4.5%) showed an effect of 50% or more. Effects have a minus sign here. The list shows a part of the results.
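Also: peak tail current of the secondary pulse compared with the same well before compound.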

human ether-à-go-go-related gene (hERG) potassium channel, sequence (Q12809 whole entry, looked up): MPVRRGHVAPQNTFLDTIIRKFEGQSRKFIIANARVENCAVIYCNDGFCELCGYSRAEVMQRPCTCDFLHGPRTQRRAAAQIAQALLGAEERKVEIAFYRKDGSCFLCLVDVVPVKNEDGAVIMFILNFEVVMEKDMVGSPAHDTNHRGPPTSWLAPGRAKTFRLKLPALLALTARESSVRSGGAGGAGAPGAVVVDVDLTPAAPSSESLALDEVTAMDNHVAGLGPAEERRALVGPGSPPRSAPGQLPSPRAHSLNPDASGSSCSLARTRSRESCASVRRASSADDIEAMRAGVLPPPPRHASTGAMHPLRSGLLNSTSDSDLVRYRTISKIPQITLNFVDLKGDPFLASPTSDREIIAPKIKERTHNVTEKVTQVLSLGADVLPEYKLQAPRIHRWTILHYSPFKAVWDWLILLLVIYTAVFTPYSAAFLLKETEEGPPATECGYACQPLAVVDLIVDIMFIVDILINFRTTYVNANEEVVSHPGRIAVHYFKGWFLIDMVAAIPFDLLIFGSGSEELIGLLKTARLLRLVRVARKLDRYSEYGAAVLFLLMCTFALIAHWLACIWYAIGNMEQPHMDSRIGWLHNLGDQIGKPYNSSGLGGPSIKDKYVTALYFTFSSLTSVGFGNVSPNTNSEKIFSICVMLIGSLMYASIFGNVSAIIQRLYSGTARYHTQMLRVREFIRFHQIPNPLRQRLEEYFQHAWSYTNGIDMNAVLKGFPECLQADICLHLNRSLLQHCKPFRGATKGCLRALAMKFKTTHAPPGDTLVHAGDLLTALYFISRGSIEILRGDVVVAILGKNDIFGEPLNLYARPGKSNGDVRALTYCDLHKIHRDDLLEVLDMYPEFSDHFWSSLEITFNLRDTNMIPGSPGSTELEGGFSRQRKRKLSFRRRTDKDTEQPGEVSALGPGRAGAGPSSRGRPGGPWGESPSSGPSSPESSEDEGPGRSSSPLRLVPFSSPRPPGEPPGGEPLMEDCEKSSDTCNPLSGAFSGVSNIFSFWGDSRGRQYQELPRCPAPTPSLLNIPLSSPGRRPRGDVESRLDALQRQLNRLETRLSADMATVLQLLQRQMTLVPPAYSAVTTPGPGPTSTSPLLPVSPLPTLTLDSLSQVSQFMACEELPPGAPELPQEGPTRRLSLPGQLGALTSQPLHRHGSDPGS

This assay concerns the target human ether-à-go-go-related gene (hERG) potassium channel (human, UniProt Q12809). Kind of assay: primary screen, population patch clamp on CHO cells stably expressing hERG.
Take `COc1cc(/C=C/C(=O)OCC(=O)NC(=O)NC23CC4CC(CC(C4)C2)C3)ccc1OCC#N`: the “hERG current change (%, negative = inhibition) at 10uM” value was 10.7%.

For `COc1ccc(CCNC(=O)C2CCCN(S(=O)(=O)c3cnc[nH]3)C2)cc1OC` (stereo not drawn), the “hERG current change (%, negative = inhibition) at 10uM” value is 8.77%.

Turning to `O=Cc1ccc(Oc2cc(-c3ccccc3)nc(-c3ccccc3)n2)cc1`, the “hERG current change (%, negative = inhibition) at 10uM” value came to 11.5%.

As to `COc1cc(OC)c2c(-c3ccccc3)cc(=O)oc2c1C(CC(=O)N1CCCC1)c1ccc2c(c1)OCO2` (stereo not drawn), the “hERG current change (%, negative = inhibition) at 10uM” value is -0.732%.

As to `CC1=[N+]([O-])C(N2CCOCC2)C(O)(c2ccccc2)C1` (stereo not drawn), the “hERG current change (%, negative = inhibition) at 10uM” value was found to be 9.09%.

Regarding `Cc1nnc(SCC(=O)N2CCCC2)n(N)c1=O`, the “hERG current change (%, negative = inhibition) at 10uM” value stood at 14.1%.

`c1ccc(CN2CCCC3(CCCN(Cc4nc(CC5CC5)no4)C3)C2)cc1` (stereo not drawn): the “hERG current change (%, negative = inhibition) at 10uM” value is on record as -52.1%.

On to `O=C(NCC1CCCO1)c1cccc(Oc2ccc([N+](=O)[O-])cc2)c1` (stereo not drawn), for which the “hERG current change (%, negative = inhibition) at 10uM” value was -73.7%.

For the compound `Br.Cc1cccc(C2CN(C)CCc3c2cc(O)c(O)c3Cl)c1` (stereo not drawn), the “hERG current change (%, negative = inhibition) at 10uM” value is reported as -51.1%.

Turning to `CCOC(=O)c1ccc(N2C(=O)CC(N3CCC(C(N)=O)(N4CCCCC4)CC3)C2=O)cc1` (stereo not drawn), the “hERG current change (%, negative = inhibition) at 10uM” value is given as 17.4%.

For `CCN(C(=O)CN1CCN(c2cccc(C(F)(F)F)c2)CC1)c1c(N)n(Cc2ccccc2)c(=O)[nH]c1=O`, the “hERG current change (%, negative = inhibition) at 10uM” value was -20.3%.

For `OC(COc1ccc2ccccc2c1)Cn1ccnc1` (stereo not drawn), the “hERG current change (%, negative = inhibition) at 10uM” value is recorded as -12.1%.

Take `O=C(NCc1ccccc1)N[C@@H](Cc1ccccc1)C(=O)O`: the “hERG current change (%, negative = inhibition) at 10uM” value was 5.79%.

Consider `S=C(c1cn(CCOc2cccc3ccccc23)c2ccccc12)N1CCCC1`, for which the “hERG current change (%, negative = inhibition) at 10uM” value was 0.42%.

Regarding `COc1ccc(NC(C)=O)cc1NC(=O)c1cccc(S(=O)(=O)N2CCc3ccccc32)c1`, the “hERG current change (%, negative = inhibition) at 10uM” value was -40.1%.

Take `Cc1cc(C(=O)CN2C(=O)C(=O)N(Cc3ccccc3)C2=O)c(C)n1Cc1ccc(F)cc1`: the “hERG current change (%, negative = inhibition) at 10uM” value is 8.39%.

Take `CCCCCCCC(=O)NN1CCOCC1`: the “hERG current change (%, negative = inhibition) at 10uM” value is on record as 10.1%.

For `COc1ccc2cc(-c3[nH]ncc3CNCCn3nc(C)cc3C)ccc2c1`, the “hERG current change (%, negative = inhibition) at 10uM” value is reported as -63.2%.

Turning to `CC12CCC(=O)N1C(C(=O)NNC(=O)COc1ccccc1Cl)CS2` (stereo not drawn), the “hERG current change (%, negative = inhibition) at 10uM” value is -19.2%.

As to `CC1CN(C(=O)COC(=O)[C@@H]2CC(O)CN2S(=O)(=O)c2ccc3c(c2)OCCO3)CC(C)O1` (stereo partly drawn), the “hERG current change (%, negative = inhibition) at 10uM” value is recorded as -1.29%.

Turning to `CCOC(=O)N1CCN(CCCc2ccccc2)CC1`, the “hERG current change (%, negative = inhibition) at 10uM” value is -6.26%.

Regarding `COc1ccc(N2C(=O)c3cccc4cccc(c34)C2=O)nn1`, the “hERG current change (%, negative = inhibition) at 10uM” value is -3.92%.

Regarding `Cc1ccc2c(C)c(C(=O)Nc3c(C)n(C)n(-c4ccccc4)c3=O)oc2c1C`, the “hERG current change (%, negative = inhibition) at 10uM” value is recorded as -29.4%.

Turning to `Cc1cc(C)nc(SCNC(=O)c2ccc(F)cc2)n1`, the “hERG current change (%, negative = inhibition) at 10uM” value turned out to be 6.25%.

As for `CC(CCc1ccccc1)NS(=O)(=O)c1ccccc1Cl` (stereo not drawn), the “hERG current change (%, negative = inhibition) at 10uM” value is recorded as -2.92%.

On to `COc1ccc(C(C)NC(=O)C23CC4CC(CC(C4)C2)C3)cc1` (stereo not drawn), for which the “hERG current change (%, negative = inhibition) at 10uM” value is 19.2%.

Consider `COc1ccc(/C=C/C(=O)NC(=S)Nc2ccc(S(=O)(=O)Nc3ccc(OC)nn3)cc2)cc1`, for which the “hERG current change (%, negative = inhibition) at 10uM” value is 6.72%.

On to `Cc1cccc2[nH]c3c(N4CCC5(CC4)OCCO5)ncnc3c12`, for which the “hERG current change (%, negative = inhibition) at 10uM” value is -14%.

In the case of `CC(C)(C)c1cc2nc(N)nc(N)n2n1`, the “hERG current change (%, negative = inhibition) at 10uM” value is listed as 7.36%.

Take `Cc1cc(C(F)F)nn1CC(=O)N1CCSCC1`: the “hERG current change (%, negative = inhibition) at 10uM” value is given as 4.41%.

`O=C(O)CCCC(=O)Nc1ccc(Br)cc1C(=O)O`: the “hERG current change (%, negative = inhibition) at 10uM” value was 11%.

On to `COc1ccc(-c2csc(-c3cc4ccccc4oc3=N)n2)cc1`, for which the “hERG current change (%, negative = inhibition) at 10uM” value is on record as -4.44%.

Consider `Cl.N=c1c[n+](N2CCOCC2)[n-]o1`, for which the “hERG current change (%, negative = inhibition) at 10uM” value was found to be 24.4%.

Take `COC(=O)c1cc2sccc2n1Cc1nc(-c2ccc(Cl)cc2)oc1C`: the “hERG current change (%, negative = inhibition) at 10uM” value came to 9.92%.

As to `COCCNC(=O)C(OC(=O)c1ccco1)c1ccccc1F` (stereo not drawn), the “hERG current change (%, negative = inhibition) at 10uM” value is on record as 7.27%.

In the case of `Cn1cc(Cl)c(C(=O)Nc2nc3ccccc3s2)n1`, the “hERG current change (%, negative = inhibition) at 10uM” value was -5.55%.

For the compound `c1ccc(Oc2nc(Oc3ccccc3)nc(N3CCOCC3)n2)cc1`, the “hERG current change (%, negative = inhibition) at 10uM” value is -9.22%.

As to `COCCN(Cc1ccccc1)C(=O)C1CCN(S(=O)(=O)c2ccc3c(c2)OCCO3)CC1`, the “hERG current change (%, negative = inhibition) at 10uM” value was -29.1%.

`Cc1cc(C)n(-c2c(F)c(F)c(CN3CCOCC3)c(F)c2F)n1`: the “hERG current change (%, negative = inhibition) at 10uM” value turned out to be 10.8%.

For the compound `O=C(NCCc1ccc(Cl)cc1Cl)c1ccc2nc[nH]c2c1`, the “hERG current change (%, negative = inhibition) at 10uM” value was 6.25%.

For the compound `Oc1c(C(Nc2cccc(C(F)(F)F)c2)c2ccncc2)ccc2cccnc12` (stereo not drawn), the “hERG current change (%, negative = inhibition) at 10uM” value is 12.3%.

Take `Cc1ccc(NC(=O)CSc2nnc(Cc3ccccc3)o2)c(C)c1`: the “hERG current change (%, negative = inhibition) at 10uM” value was 18.4%.

In the case of `COc1ccc(OC)c(CC(=O)Nc2ccc3c(c2)CCC3)c1`, the “hERG current change (%, negative = inhibition) at 10uM” value came to 23.2%.

Take `CCC(=O)Nc1ccccc1C(=O)N1CCOCC1`: the “hERG current change (%, negative = inhibition) at 10uM” value was 17.2%.

In the case of `CC(=Nc1c(C)n(C)n(-c2ccccc2)c1=O)c1c(O)n(Cc2ccccc2)c(=O)[nH]c1=O`, the “hERG current change (%, negative = inhibition) at 10uM” value is given as 14.6%.

For `O=S1(=O)CCC(N=Cc2cc(Br)ccc2O)C1` (stereo not drawn), the “hERG current change (%, negative = inhibition) at 10uM” value is -1.41%.

Take `CCc1cc(=O)oc2cc(OCC(=O)NCCN3CCOCC3)c(Cl)cc12`: the “hERG current change (%, negative = inhibition) at 10uM” value was determined as 13.3%.

For the compound `Cc1c(C(=O)OCC(=O)N2CCCC2=O)oc2ccccc12`, the “hERG current change (%, negative = inhibition) at 10uM” value came out at 12.4%.

For the compound `CCN(CC)c1ccc(NC(=O)c2cccnc2)cc1`, the “hERG current change (%, negative = inhibition) at 10uM” value is on record as 4.44%.

`CCCn1c(SCC(=O)NCc2ccc3c(c2)OCO3)n[nH]c1=O`: the “hERG current change (%, negative = inhibition) at 10uM” value is given as -2.27%.

Consider `Cc1cc(C)n(C(=O)CNC(=O)/C=C/c2ccccc2)n1`, for which the “hERG current change (%, negative = inhibition) at 10uM” value stood at 16.6%.

As for `CCC(C)N(C)C1CCN(C(=S)Nc2ccc(OC)cc2)CC1` (stereo not drawn), the “hERG current change (%, negative = inhibition) at 10uM” value was 11.6%.

For the compound `CCOCCCNc1nc2nc3ccc(C)cn3c(=O)c2cc1C(=O)NCC1CCCO1` (stereo not drawn), the “hERG current change (%, negative = inhibition) at 10uM” value is given as -77.7%.

With `CCn1nnnc1NCc1ccc(Cl)cc1`, the “hERG current change (%, negative = inhibition) at 10uM” value stood at 9.44%.

As to `CCN(CC)CCNC(=O)CCc1c(C)nc2c(c(C)nn2-c2ccc(C)cc2)c1C`, the “hERG current change (%, negative = inhibition) at 10uM” value is given as -55.4%.

Take `CCCCn1c(N)c(N(CCC(C)C)C(=O)COC(=O)c2cccnc2Cl)c(=O)[nH]c1=O`: the “hERG current change (%, negative = inhibition) at 10uM” value was 14.5%.

For `O=C(NCc1ccccc1)c1ccc2c(c1)C(=O)N(Cc1ccncc1)C2=O`, the “hERG current change (%, negative = inhibition) at 10uM” value was -34.6%.
